Data from paper PMC9911399, “Two distinct binding modes provide the RNA-binding protein RbFox with extraordinary sequence specificity”.
Changes are numbered by the printed parent chain; changes in the protein carry UniProt numbers. This is one part of the list.

T1: RBFOX1 RRM (Homo sapiens, UniProt Q9NWB1 109-208)
T1 sequence: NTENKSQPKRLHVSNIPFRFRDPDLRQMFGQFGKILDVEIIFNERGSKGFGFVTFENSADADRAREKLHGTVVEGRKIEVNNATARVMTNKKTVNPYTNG

B1: GCAUCGG (DNA:RNA)
RNA: GGGAGACCGGAAUUCAGAUUGUCCGCAUCGGUUAAAUCCCGUCGUAGCCACCA
DNA 1: CAATCTGAATTCCGGTCTCCC
DNA 2: TGGTGGCTACGACGGGATT
B2: UCCGCCG (DNA:RNA)
RNA: B1 RNA with G25U, A27C, U28G, G30C
DNA 1: CAATCTGAATTCCGGTCTCCC
DNA 2: TGGTGGCTACGACGGGATT
B3: UUAUCUU (DNA:RNA)
RNA: B1 RNA with G25U, C26U, G30U, G31U
DNA 1: CAATCTGAATTCCGGTCTCCC
DNA 2: TGGTGGCTACGACGGGATT
B4: AUAUAUU (DNA:RNA)
RNA: B1 RNA with G25A, C26U, C29A, G30U, G31U
DNA 1: CAATCTGAATTCCGGTCTCCC
DNA 2: TGGTGGCTACGACGGGATT
B5: CUGCAAC (DNA:RNA)
RNA: GGGAGACCGGAAUUCAGAUUGUCCCUGCAACUUAAAUCCCGUCGUAGCCACCA
DNA 1: CAATCTGAATTCCGGTCTCCC
DNA 2: TGGTGGCTACGACGGGATT
B6: GGUAGGU (DNA:RNA)
RNA: B1 RNA with C26G, A27U, U28A, C29G, G31U
DNA 1: CAATCTGAATTCCGGTCTCCC
DNA 2: TGGTGGCTACGACGGGATT
B7: GCUCCUC (DNA:RNA)
RNA: B1 RNA with A27U, U28C, G30U, G31C
DNA 1: CAATCTGAATTCCGGTCTCCC
DNA 2: TGGTGGCTACGACGGGATT
B8: UUGAGCC (DNA:RNA)
RNA: B5 RNA with C25U, C28A, A29G, A30C
DNA 1: CAATCTGAATTCCGGTCTCCC
DNA 2: TGGTGGCTACGACGGGATT
B9: GUAAGAG (DNA:RNA)
RNA: B1 RNA with C26U, U28A, C29G, G30A
DNA 1: CAATCTGAATTCCGGTCTCCC
DNA 2: TGGTGGCTACGACGGGATT
B10: ACUUGCA (DNA:RNA)
RNA: B1 RNA with G25A, A27U, C29G, G30C, G31A
DNA 1: CAATCTGAATTCCGGTCTCCC
DNA 2: TGGTGGCTACGACGGGATT
B11: CCUCAUU (DNA:RNA)
RNA: B5 RNA with U26C, G27U, A30U, C31U
DNA 1: CAATCTGAATTCCGGTCTCCC
DNA 2: TGGTGGCTACGACGGGATT
B12: GGUAUAG (DNA:RNA)
RNA: B1 RNA with C26G, A27U, U28A, C29U, G30A
DNA 1: CAATCTGAATTCCGGTCTCCC
DNA 2: TGGTGGCTACGACGGGATT
B13: AUCUGCA (DNA:RNA)
RNA: B5 RNA with C25A, G27C, C28U, A29G, A30C, C31A
DNA 1: CAATCTGAATTCCGGTCTCCC
DNA 2: TGGTGGCTACGACGGGATT
B14: CGACUUG (DNA:RNA)
RNA: B5 RNA with U26G, G27A, A29U, A30U, C31G
DNA 1: CAATCTGAATTCCGGTCTCCC
DNA 2: TGGTGGCTACGACGGGATT
B15: GGCUGGA (DNA:RNA)
RNA: B1 RNA with C26G, A27C, C29G, G31A
DNA 1: CAATCTGAATTCCGGTCTCCC
DNA 2: TGGTGGCTACGACGGGATT
B16: CUUAACG (DNA:RNA)
RNA: B5 RNA with G27U, C28A, A30C, C31G
DNA 1: CAATCTGAATTCCGGTCTCCC
DNA 2: TGGTGGCTACGACGGGATT
B17: GUUACAU (DNA:RNA)
RNA: B5 RNA with C25G, G27U, C28A, A29C, C31U
DNA 1: CAATCTGAATTCCGGTCTCCC
DNA 2: TGGTGGCTACGACGGGATT
B18: CUUAAUU (DNA:RNA)
RNA: B5 RNA with G27U, C28A, A30U, C31U
DNA 1: CAATCTGAATTCCGGTCTCCC
DNA 2: TGGTGGCTACGACGGGATT
B19: GCCAGAC (DNA:RNA)
RNA: B5 RNA with C25G, U26C, G27C, C28A, A29G
DNA 1: CAATCTGAATTCCGGTCTCCC
DNA 2: TGGTGGCTACGACGGGATT
B20: AAUAUCC (DNA:RNA)
RNA: B5 RNA with C25A, U26A, G27U, C28A, A29U, A30C
DNA 1: CAATCTGAATTCCGGTCTCCC
DNA 2: TGGTGGCTACGACGGGATT
B21: CUGUUCA (DNA:RNA)
RNA: B5 RNA with C28U, A29U, A30C, C31A
DNA 1: CAATCTGAATTCCGGTCTCCC
DNA 2: TGGTGGCTACGACGGGATT
B22: GAUUAGU (DNA:RNA)
RNA: B1 RNA with C26A, A27U, C29A, G31U
DNA 1: CAATCTGAATTCCGGTCTCCC
DNA 2: TGGTGGCTACGACGGGATT
B23: CCAACAG (DNA:RNA)
RNA: B1 RNA with G25C, U28A, G30A
DNA 1: CAATCTGAATTCCGGTCTCCC
DNA 2: TGGTGGCTACGACGGGATT
B24: UGACUGA (DNA:RNA)
RNA: B1 RNA with G25U, C26G, U28C, C29U, G31A
DNA 1: CAATCTGAATTCCGGTCTCCC
DNA 2: TGGTGGCTACGACGGGATT
B25: UUGCGAA (DNA:RNA)
RNA: B5 RNA with C25U, A29G, C31A
DNA 1: CAATCTGAATTCCGGTCTCCC
DNA 2: TGGTGGCTACGACGGGATT
B26: GUCAUCG (DNA:RNA)
RNA: B1 RNA with C26U, A27C, U28A, C29U, G30C
DNA 1: CAATCTGAATTCCGGTCTCCC
DNA 2: TGGTGGCTACGACGGGATT
B27: GAUAAUG (DNA:RNA)
RNA: B1 RNA with C26A, A27U, U28A, C29A, G30U
DNA 1: CAATCTGAATTCCGGTCTCCC
DNA 2: TGGTGGCTACGACGGGATT
B28: ACGCGCA (DNA:RNA)
RNA: B5 RNA with C25A, U26C, A29G, A30C, C31A
DNA 1: CAATCTGAATTCCGGTCTCCC
DNA 2: TGGTGGCTACGACGGGATT
B29: UUAGGGG (DNA:RNA)
RNA: B1 RNA with G25U, C26U, U28G, C29G
DNA 1: CAATCTGAATTCCGGTCTCCC
DNA 2: TGGTGGCTACGACGGGATT
B30: AACGUCA (DNA:RNA)
RNA: GGGAGACCGGAAUUCAGAUUGUCCAACGUCAUUAAAUCCCGUCGUAGCCACCA
DNA 1: CAATCTGAATTCCGGTCTCCC
DNA 2: TGGTGGCTACGACGGGATT
B31: UCGAAAC (DNA:RNA)
RNA: B5 RNA with C25U, U26C, C28A
DNA 1: CAATCTGAATTCCGGTCTCCC
DNA 2: TGGTGGCTACGACGGGATT

molecular target: T1, RBFOX1 RRM; test: EMSA; HiTS-Eq, 1 nM pool, 10 min; buffer printed only for the single-RNA assays: 10 mM Tris pH 7.5, 150 mM NaCl, 3.4 mM EDTA, 0.001% NP-40, 30 C; settings: tags: His6 N-terminal (pET28a); label: 5' 32P
Method in brief: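 Purified wild-type or mutant RbFox RRM at increasing concentrations was equilibrated with 1 nM of 5′-radiolabelled RNA carrying 7 randomized nucleotides for 10 min in 50 µL. Unbound RNA was separated by 8% native PAGE and sequenced. Relative association constants came from read-count changes of each RNA species compared with the control reaction, normalised to the cognate motif.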

Binder	binding signal
B1	0.0143 KA relative to UGCAUGU
B2	0.00754 KA relative to UGCAUGU
B3	0.00561 KA relative to UGCAUGU
B4	0.0016 KA relative to UGCAUGU
B5	0.0117 KA relative to UGCAUGU
B6	0.0113 KA relative to UGCAUGU
B7	0.00338 KA relative to UGCAUGU
B8	0.0137 KA relative to UGCAUGU
B9	0.0116 KA relative to UGCAUGU
B10	0.0132 KA relative to UGCAUGU
B11	0.00384 KA relative to UGCAUGU
B12	0.00862 KA relative to UGCAUGU
B13	0.0136 KA relative to UGCAUGU
B14	0.0154 KA relative to UGCAUGU
B15	0.0107 KA relative to UGCAUGU
B16	0.0044 KA relative to UGCAUGU

Binder	binding signal
B17	0.0045 KA relative to UGCAUGU
B18	0.00683 KA relative to UGCAUGU
B19	0.0114 KA relative to UGCAUGU
B20	0.000265 KA relative to UGCAUGU
B21	0.0121 KA relative to UGCAUGU
B22	0.0115 KA relative to UGCAUGU
B23	0.00295 KA relative to UGCAUGU
B24	0.0256 KA relative to UGCAUGU
B25	0.0119 KA relative to UGCAUGU
B26	0.00989 KA relative to UGCAUGU
B27	0.015 KA relative to UGCAUGU
B28	0.0134 KA relative to UGCAUGU
B29	0.0032 KA relative to UGCAUGU
B30	0.00367 KA relative to UGCAUGU
B31	0.00905 KA relative to UGCAUGU
